{
  "source": "the supplement of paper PMC8728848",
  "assay_in_all_cases": "glycan array binding signal (z-score within array); higher = stronger binding",
  "conditions_in_all_cases": "glycan notation: IUPAC condensed, linker removed",
  "key": {"[1]": {"target": "Neu5Ac(a2-8)Neu5Ac", "procedure,_shortened": "(§1)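 From the Consortium for Functional Glycomics database, 3228 arrays were curated, keeping only those whose protein sequence was available. Binding is given as a within-array Z-score averaged across arrays sharing a protein sequence and across linkers. Negative Z-scores can be read as non-binding.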"}, "[2]": {"target": "Neu5Ac(a2-8)Neu5Ac(a2-3)Gal(b1-3)GalNAc(b1-4)[Neu5Ac(a2-3)]Gal(b1-4)Glc", "procedure,_shortened": "as §1"}, "[3]": {"target": "Neu5Ac(a2-8)Neu5Ac(a2-3)Gal(b1-3)GalNAc(b1-4)[Neu5Ac(a2-8)Neu5Ac(a2-3)]Gal(b1-4)Glc", "procedure,_shortened": "as §1"}, "[4]": {"target": "Neu5Ac(a2-8)Neu5Ac(a2-3)Gal(b1-4)Glc", "procedure,_shortened": "as §1"}, "[5]": {"target": "Neu5Ac(a2-8)Neu5Ac(a2-3)Gal(b1-4)GlcNAc", "procedure,_shortened": "as §1"}, "[6]": {"target": "Neu5Ac(a2-8)Neu5Ac(a2-3)[Gal(b1-3)GalNAc(b1-4)]Gal(b1-4)Glc", "procedure,_shortened": "as §1"}, "[7]": {"target": "Neu5Ac(a2-8)Neu5Ac(a2-3)[GalNAc(b1-4)]Gal(b1-4)Glc", "procedure,_shortened": "as §1"}, "[8]": {"target": "Neu5Ac(a2-8)Neu5Ac(a2-8)Neu5Ac", "procedure,_shortened": "as §1"}, "[9]": {"target": "Neu5Ac(a2-8)Neu5Ac(a2-8)Neu5Ac(a2-3)Gal(b1-4)Glc", "procedure,_shortened": "as §1"}, "[10]": {"target": "Neu5Ac(a2-8)Neu5Ac(a2-8)Neu5Ac(a2-3)[Gal(b1-3)GalNAc(b1-4)]Gal(b1-4)Glc", "procedure,_shortened": "as §1"}, "[11]": {"target": "Neu5Ac(a2-8)Neu5Ac(a2-8)Neu5Ac(a2-3)[GalNAc(b1-4)]Gal(b1-4)Glc", "procedure,_shortened": "as §1"}, "[12]": {"target": "Neu5Ac(a2-8)Neu5Ac(a2-8)Neu5Ac(a2-8)Neu5Ac(a2-3)[GalNAc(b1-4)]Gal(b1-4)Glc", "procedure,_shortened": "as §1"}, "[13]": {"target": "Neu5Ac(a2-8)Neu5Gc(a2-3)Gal(b1-4)GlcNAc", "procedure,_shortened": "as §1"}, "[14]": {"target": "Neu5Ac(b2-6)Gal(b1-4)GlcNAc", "procedure,_shortened": "as §1"}, "[15]": {"target": "Neu5Ac(b2-6)GalNAc", "procedure,_shortened": "as §1"}, "[16]": {"target": "Neu5Ac9Ac(a2-3)Gal(b1-3)GlcNAc", "procedure,_shortened": "as §1"}, "[17]": {"target": "Neu5Ac9Ac(a2-3)Gal(b1-4)GlcNAc", "procedure,_shortened": "as §1"}, "[18]": {"target": "Neu5Ac9Ac(a2-6)Gal(b1-4)GlcNAc", "procedure,_shortened": "as §1"}, "[19]": {"target": "Neu5Gc(a2-3)Gal(b1-3)GlcNAc", "procedure,_shortened": "as §1"}, "[20]": {"target": "Neu5Gc(a2-3)Gal(b1-3)[Fuc(a1-4)]GlcNAc", "procedure,_shortened": "as §1"}, "[21]": {"target": "Neu5Gc(a2-3)Gal(b1-4)Glc", "procedure,_shortened": "as §1"}, "[22]": {"target": "Neu5Gc(a2-3)Gal(b1-4)GlcNAc", "procedure,_shortened": "as §1"}, "[23]": {"target": "Neu5Gc(a2-3)Gal(b1-4)GlcNAc(b1-3)Gal(b1-4)GlcNAc(b1-2)Man(a1-3)[Neu5Gc(a2-3)Gal(b1-4)GlcNAc(b1-3)Gal(b1-4)GlcNAc(b1-2)Man(a1-6)]Man(b1-4)GlcNAc(b1-4)GlcNAc", "procedure,_shortened": "as §1"}, "[24]": {"target": "Neu5Gc(a2-3)Gal(b1-4)[Fuc(a1-3)]GlcNAc", "procedure,_shortened": "as §1"}, "[25]": {"target": "Neu5Gc(a2-6)Gal(b1-4)GlcNAc", "procedure,_shortened": "as §1"}, "[26]": {"target": "Neu5Gc(a2-6)GalNAc", "procedure,_shortened": "as §1"}, "[27]": {"target": "Neu5Gc(a2-8)Neu5Ac(a2-3)Gal(b1-4)GlcNAc", "procedure,_shortened": "as §1"}, "[28]": {"target": "Neu5Gc(a2-8)Neu5Gc(a2-3)Gal(b1-4)GlcNAc", "procedure,_shortened": "as §1"}, "[29]": {"target": "Neu5Gc(a2-8)Neu5Gc(a2-3)Gal(b1-4)GlcNAc(b1-3)Gal(b1-4)GlcNAc", "procedure,_shortened": "as §1"}, "[30]": {"target": "Neu5Gc(a2-8)Neu5Gc(a2-6)Gal(b1-4)GlcNAc", "procedure,_shortened": "as §1"}, "[31]": {"target": "Neu5Gc(b2-6)Gal(b1-4)GlcNAc", "procedure,_shortened": "as §1"}},
  "note": "The other results are listed elsewhere or left out.",
  "data": [
    {"binder": "AT1G15820(NC) (Arabidopsis thaliana) (protein) MAMAVSGAVLSGLGSSFLTGGKRGATALASGVGDAIAPFSFGSLLGTQLLLMGWVESKRWVDFFNPDSQSVEWATPWSKTAENFANYTGDQGYPGGRFFDPLGLAGKNRDGVYEPDFEKLERLKLAEIKHSRLAMVAMLIFYFEAGQGKTPLGALGL", "values": [
      {"measurement": "glycan array binding signal (z-score)", "setting": "[1]", "value": -0.211},
      {"measurement": "glycan array binding signal (z-score)", "setting": "[2]", "value": -0.455},
      {"measurement": "glycan array binding signal (z-score)", "setting": "[3]", "value": 5.08},
      {"measurement": "glycan array binding signal (z-score)", "setting": "[4]", "value": -0.371},
      {"measurement": "glycan array binding signal (z-score)", "setting": "[5]", "value": -0.632},
      {"measurement": "glycan array binding signal (z-score)", "setting": "[6]", "value": -0.228},
      {"measurement": "glycan array binding signal (z-score)", "setting": "[7]", "value": -0.273},
      {"measurement": "glycan array binding signal (z-score)", "setting": "[8]", "value": -0.269},
      {"measurement": "glycan array binding signal (z-score)", "setting": "[9]", "value": -0.588},
      {"measurement": "glycan array binding signal (z-score)", "setting": "[10]", "value": -0.448},
      {"measurement": "glycan array binding signal (z-score)", "setting": "[11]", "value": -0.15},
      {"measurement": "glycan array binding signal (z-score)", "setting": "[12]", "value": -0.598},
      {"measurement": "glycan array binding signal (z-score)", "setting": "[13]", "value": 0.008},
      {"measurement": "glycan array binding signal (z-score)", "setting": "[14]", "value": -0.364},
      {"measurement": "glycan array binding signal (z-score)", "setting": "[15]", "value": -0.386},
      {"measurement": "glycan array binding signal (z-score)", "setting": "[16]", "value": -0.4},
      {"measurement": "glycan array binding signal (z-score)", "setting": "[17]", "value": -0.551},
      {"measurement": "glycan array binding signal (z-score)", "setting": "[18]", "value": -0.538},
      {"measurement": "glycan array binding signal (z-score)", "setting": "[19]", "value": -0.092},
      {"measurement": "glycan array binding signal (z-score)", "setting": "[20]", "value": -0.75},
      {"measurement": "glycan array binding signal (z-score)", "setting": "[21]", "value": -0.435},
      {"measurement": "glycan array binding signal (z-score)", "setting": "[22]", "value": -0.319},
      {"measurement": "glycan array binding signal (z-score)", "setting": "[23]", "value": -0.257},
      {"measurement": "glycan array binding signal (z-score)", "setting": "[24]", "value": -0.005},
      {"measurement": "glycan array binding signal (z-score)", "setting": "[25]", "value": -0.077},
      {"measurement": "glycan array binding signal (z-score)", "setting": "[26]", "value": -0.493},
      {"measurement": "glycan array binding signal (z-score)", "setting": "[27]", "value": 0.402},
      {"measurement": "glycan array binding signal (z-score)", "setting": "[28]", "value": -0.473},
      {"measurement": "glycan array binding signal (z-score)", "setting": "[29]", "value": -0.196},
      {"measurement": "glycan array binding signal (z-score)", "setting": "[30]", "value": 0.345},
      {"measurement": "glycan array binding signal (z-score)", "setting": "[31]", "value": 0.358}
    ]}
  ]
}
